Molecules are shown by their SMILES. Hit rate of the full screen: of about 16,000 compounds, about 120 (0.75%) were called active. About 4% were inconclusive and are not listed. Calls come from the whole dose curve; as a rule, active = well fitted inhibition curve with a large enough effect; inconclusive = small, poorly fitted or top-dose-only effect; inactive = no such curve, though single readings can be large or run the other way. The list shows a part of the results.

The target in the assay is Rap guanine nucleotide exchange factor 3 (Homo sapiens) (UniProt O95398). Description: Validation qHTS for antagonist of cAMP-regulated guanine nucleotide exchange factor 3 (EPAC1). Note: nearly all actives have a fitted effect of over 75% in size. The settings on record: EPAC1 Rap1B-BODIPY-GDP exchange, fluorescence; series mostly up to 150 µM; activity change, negative = inhibition: at the top concentration. In a few lines: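 EPAC1 (100 nM) mixed with 250 nM RAP1B-BODIPY-GDP and 50 uM GDP; compounds in concentration series, 5 min at room temperature. Fluorescence (ex 480/em 540 nm) read every 5 min for 30 min; normalized to ATA control and DMSO.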
Chain of UniProt O95398 (O95398 whole entry, looked up): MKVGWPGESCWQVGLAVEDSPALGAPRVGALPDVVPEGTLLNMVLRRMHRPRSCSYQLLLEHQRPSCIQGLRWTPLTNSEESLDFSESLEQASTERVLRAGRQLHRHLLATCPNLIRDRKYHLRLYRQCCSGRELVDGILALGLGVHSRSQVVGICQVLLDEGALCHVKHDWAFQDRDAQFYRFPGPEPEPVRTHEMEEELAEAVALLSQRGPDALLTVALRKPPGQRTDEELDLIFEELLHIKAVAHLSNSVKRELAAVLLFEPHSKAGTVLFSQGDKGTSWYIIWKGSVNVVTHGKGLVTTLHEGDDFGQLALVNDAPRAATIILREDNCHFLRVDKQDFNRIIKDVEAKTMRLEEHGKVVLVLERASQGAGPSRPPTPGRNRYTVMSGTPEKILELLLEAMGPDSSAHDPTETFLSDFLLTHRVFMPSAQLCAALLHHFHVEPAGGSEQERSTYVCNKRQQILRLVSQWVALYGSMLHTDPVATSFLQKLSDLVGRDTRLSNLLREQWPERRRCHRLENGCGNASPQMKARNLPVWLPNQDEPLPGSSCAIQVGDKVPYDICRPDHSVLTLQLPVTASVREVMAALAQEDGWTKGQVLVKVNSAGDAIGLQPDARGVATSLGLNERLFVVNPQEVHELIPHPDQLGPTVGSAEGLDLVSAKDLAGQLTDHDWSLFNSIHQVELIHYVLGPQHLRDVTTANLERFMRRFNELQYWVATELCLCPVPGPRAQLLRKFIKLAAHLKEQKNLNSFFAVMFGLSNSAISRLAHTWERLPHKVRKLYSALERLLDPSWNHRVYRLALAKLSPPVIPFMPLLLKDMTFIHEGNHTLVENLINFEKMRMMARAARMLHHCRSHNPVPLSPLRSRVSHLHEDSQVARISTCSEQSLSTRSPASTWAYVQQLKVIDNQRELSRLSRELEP
(In general: qHTS replaces the single test concentration by a dilution series.)
`CSc1ccccc1C(=O)NCC1Cc2cccc(-c3ncccc3C)c2O1` (centres undefined): the “activity change, negative = inhibition” value is inactive: 0.746%.

With `Cc1cc(-n2c(=O)[nH]c(=O)n(C)c2=O)ccc1Oc1ccc(S(=O)(=O)C(F)(F)F)cc1`, the “activity change, negative = inhibition” value is inactive: 29.3%.

For the molecule `CCCc1c2oc(C(=O)O)cc(=O)c2cc2c(=O)cc(C(=O)O)n(CC)c12`, the “activity change, negative = inhibition” value is inactive: 27.3%.

Regarding `COc1cc2c(cc1OC)[C@@H](Cc1cc(OC)c(OC)c(OC)c1)[N+](C)(CCCOC(=O)CC/C=C/CCC(=O)OCCC[N+]1(C)CCc3cc(OC)c(OC)cc3[C@H]1Cc1cc(OC)c(OC)c(OC)c1)CC2` (some centres undefined), the activity change, negative = inhibition entry was “inactive”.

As for `Oc1cc(O)c2c(c1)OC(c1cc(O)c(O)c(O)c1)C(O)C2` (centres undefined), the “activity change, negative = inhibition” value is inactive: -8.05%.

For `CC(=O)OCC(=O)[C@@]12OC(C)(C)OC1CC1C3CC(F)C4=CC(=O)C=C[C@@]4(C)[C@@]3(F)C(O)C[C@]12C` (some centres undefined), the “activity change, negative = inhibition” value is inactive: 12.9%.

As for `COC(=O)/C=C/c1cc(F)ccc1S(=O)(=O)NC(C)(C)C`, the “activity change, negative = inhibition” value was inactive: -7.45%.

Regarding `Cc1cc(C)nc(-c2cccc3c2OC(CNC(=O)c2ccc(Cn4nc(C)cc4C)cc2)C3)n1` (centres undefined), the “activity change, negative = inhibition” value was inactive: 21.2%.

Consider `O=C1CCC[C@@H]2C[C@@]3(C[C@@H]4CCN1[C@H]24)Nc1ccccc1NC3=NCc1ccccc1`, for which the “activity change, negative = inhibition” value is inactive: 14%.

For the molecule `COC(=O)C[C@H]1c2cc(F)ccc2S(=O)(=O)N1c1ccc(N(C)C)cc1`, the “activity change, negative = inhibition” value is inactive: 8.66%.

Consider `OCC1CCCN(c2nc3cc4c(cc3cc2CNCc2cccc(C(F)(F)F)c2)OCO4)C1` (centres undefined), for which the “activity change, negative = inhibition” value is inactive: 9.65%.

Take `O=C1c2ccccc2C(=O)C1c1ccc(Cl)cc1`: the “activity change, negative = inhibition” value was inactive: 7.48%.

For the molecule `CC(=O)Oc1ccc(C(=C2CCCCC2)c2ccc(OC(C)=O)cc2)cc1`, the “activity change, negative = inhibition” value is inactive: 17.7%.

With `COc1ccc2cc([C@H](C)CO)ccc2c1`, the “activity change, negative = inhibition” value is inactive: 12%.

For `O=C(c1cc(C(F)(F)F)cc(C(F)(F)F)c1)N1CCC[C@@]2(CCN(Cc3ccncc3)C2)C1`, the “activity change, negative = inhibition” value is inactive: -7.95%.

As for `O=C(O)c1ccccn1`, the “activity change, negative = inhibition” value was inactive: 26.9%.

In the case of `CN(Cc1ccco1)c1ccnc(-c2cccnc2)n1`, the “activity change, negative = inhibition” value was inactive: 17.4%.

`Cc1ncc(CO)c(CO)c1O`: the “activity change, negative = inhibition” value is inactive: 21%.

Consider `Nc1nnnn1-c1ccccc1`, for which the “activity change, negative = inhibition” value is inactive: 17.2%.

On to `COc1ccccc1C1CN(CCNC(=O)c2sccc2Cl)Cc2ccccc2O1` (centres undefined), for which the “activity change, negative = inhibition” value was inactive: 5.98%.

On to `CN1CCc2cc(Cl)c(O)cc2[C@@H](c2ccccc2)C1`, for which the activity change, negative = inhibition entry is “inactive”.

With `COc1ccccc1CNc1ncncc1-c1ccc2c(c1)OCO2`, the “activity change, negative = inhibition” value was inactive: 1.36%.

In the case of `Nc1ccc(N2C(=O)c3ccccc3C2=O)c(Cl)c1`, the “activity change, negative = inhibition” value is inactive: -7.69% [at 75.8 µM].

Consider `CCNc1ncc2nc(-c3ccccc3)c(=O)n(C)c2n1`, for which the “activity change, negative = inhibition” value is inactive: 17.3%.

As to `Cn1c(=O)c(-c2ccc(Cl)cc2)nc2cnc(OCc3ccccc3)nc21`, the “activity change, negative = inhibition” value is inactive: 17.8%.

Regarding `Cc1nc(-c2ccc(Cl)cc2)oc1COC(C)(C)C(=O)O`, the “activity change, negative = inhibition” value is inactive: 16.6%.

`COCCn1c(=O)c(-c2ccc(OC)cc2)nc2cnc(Oc3cccc(Cl)c3)nc21`: the “activity change, negative = inhibition” value is inactive: 0.216%.

For the molecule `CS(=O)(=O)N1CCC[C@@]2(CCN(C(=O)Nc3ccccc3)C2)C1`, the “activity change, negative = inhibition” value is inactive: 0.658%.

As for `CC1(C)[C@H](C(=O)O)N2C(=O)C[C@H]2S1(=O)=O`, the “activity change, negative = inhibition” value was inactive: 10.6%.

Turning to `NC1C(O)OC(CO)[C@@H](O)[C@@H]1O[C@H]1O[C@@H](C(=O)O)C(O)C(O)C1O` (some centres undefined), the “activity change, negative = inhibition” value was inactive: 5.68%.

For the molecule `C=CS(=O)(=O)O`, the “activity change, negative = inhibition” value is inactive: -4.33%.

Consider `NC(=O)[C@@H]1CCCN1C(=O)CCN1Cc2ccccc2OC(c2ccccc2F)C1` (some centres undefined), for which the “activity change, negative = inhibition” value was inactive: 8.63%.

On to `O=C(c1cn(C2CCCN(Cc3cc(Cl)ccc3O)C2)nn1)N1CCCCC1` (centres undefined), for which the “activity change, negative = inhibition” value is inactive: -7.71%.

In the case of `O=c1cnc2cnc(Oc3cccc(Cl)c3)nc2n1Cc1ccc(F)cc1`, the “activity change, negative = inhibition” value was inactive: 8.02%.

Consider `COc1cc2c3cc1Oc1cc(ccc1O)C[C@@H]1c4c(cc(OC)c(O)c4Oc4ccc(cc4)C[C@@H]3N(C)CC2)CC[N+]1(C)C`, for which the “activity change, negative = inhibition” value was inactive: -8.45%.

Regarding `COC(=O)CC1C(C)(C)C(O)C2CC3=C4C=C(OC)OC(c5ccoc5)[C@]4(C)CCC3[C@@]1(C)C2=O` (some centres undefined), the “activity change, negative = inhibition” value is inactive: -21.5%.

For `CC(C)CN1CCC(=O)N(CCN=[N+]=[N-])CC1`, the “activity change, negative = inhibition” value was inactive: -0.957%.

Consider `CC(C)c1c(O)c(-c2cc3c(c(C(C)C)c2O)CCC2C(C)(C)CCC[C@@]32C)cc2c1CCC1C(C)(C)CCC[C@@]21C` (some centres undefined), for which the “activity change, negative = inhibition” value is inactive: -2.5%.

For the molecule `CC(=O)Nc1ccccc1-c1nc(CNC(=O)c2ccc(F)c(F)c2)c(C)o1`, the “activity change, negative = inhibition” value was inactive: 5.89%.

Take `Nc1ccc([N+](=O)[O-])cc1O`: the “activity change, negative = inhibition” value was inactive: -28% [at 320 µM].

For the molecule `COc1ncc2nc(-c3ccccc3)c(=O)n(CCc3ccccc3)c2n1`, the “activity change, negative = inhibition” value was inactive: 6.89%.

As to `COc1cc(C(=O)NCCCCCC(=O)O)cc(OC)c1OC`, the “activity change, negative = inhibition” value is inactive: -9.65%.

As to `Cc1noc(C)c1-c1cc(N(C)Cc2ccco2)ncn1`, the “activity change, negative = inhibition” value was inactive: 18.6%.

Take `Cc1ccnn1CC(=O)N1CCOc2c(cc(-c3ncc(C(F)(F)F)cc3Cl)cc2OCC2CCCO2)C1` (centres undefined): the “activity change, negative = inhibition” value is inactive: 1.92%.

In the case of `COCCNc1nc(-c2cccc(OC)c2)nc2ccccc12`, the “activity change, negative = inhibition” value was inactive: 0.815%.

On to `COc1ccc(-c2nc3cnc(OC)nc3n(Cc3cccc(OC)c3)c2=O)cc1`, for which the “activity change, negative = inhibition” value is inactive: 9.99%.

Regarding `CC1=C(C(=O)O)N2C(=O)[C@@H](NC(=O)[C@H](N)C3=CCC=CC3)[C@H]2SC1`, the “activity change, negative = inhibition” value was inactive: -3.08%.

For `N[C@@H](CCC(=O)N[C@@H](CS)C(=O)NCC(=O)O)C(=O)O`, the “activity change, negative = inhibition” value is inactive: 17%.

Take `COc1cccc(Cn2c(=O)c(-c3ccc(Cl)cc3)nc3cnc(N4CCOCC4)nc32)c1`: the “activity change, negative = inhibition” value is inactive: -6.74%.

In the case of `OC[C@]1(O)OC[C@@H](O)[C@H](O)[C@@H]1O`, the “activity change, negative = inhibition” value is inactive: 3.71%.

For `Cc1occc1C(=O)NCCN1Cc2ccccc2OC(c2ccccc2F)C1` (centres undefined), the “activity change, negative = inhibition” value was inactive: -5.13%.

As for `Cc1ccc(S[C@@H](CCN2CC[C@H](NC(=O)OCc3ccccc3)CCC2=O)c2ccccc2)cc1`, the “activity change, negative = inhibition” value was inactive: 2.09%.

In the case of `C=C1C2CC[C@@]3(C)C(c4ccoc4)OC(=O)C[C@@]13OC1CC(=O)C(C)(C)C(CC(=O)OC)[C@]12C` (some centres undefined), the “activity change, negative = inhibition” value was inactive: 1.7%.

As to `COc1cc(=O)n2c(c1C(=O)N(C)Cc1nonc1C)CCN(C(=O)c1cc(C)cc(C)c1)CC2`, the “activity change, negative = inhibition” value is inactive: -5.49%.

Regarding `Clc1ccccc1-c1nc(N2CCNCC2)c2ccccc2n1`, the “activity change, negative = inhibition” value is inactive: 22.3%.

For `CC(=O)[C@@H]1[C@H]2[C@H](C(=O)[C@H]3OC[C@@H]2O3)[C@H]2C=Cc3ccccc3N21`, the “activity change, negative = inhibition” value is inactive: 12.5%.

Take `CCC1COCCS(=O)(=O)N1Cc1ccc(C)cc1` (centres undefined): the “activity change, negative = inhibition” value was inactive: 0.883%.

`N#Cc1ccc(CN2CCCC3(CCN(S(=O)(=O)c4ccccc4)CC3)C2)cc1`: the “activity change, negative = inhibition” value was inactive: -1.49%.

For the molecule `COc1ccc2c(c1)CCc1cnc(-n3ncc(C(=O)N4CCN(CCO)CC4)c3C3CC3)nc1-2`, the “activity change, negative = inhibition” value is inactive: 14.9%.

Turning to `Nc1ccc(O)c([N+](=O)[O-])c1`, the “activity change, negative = inhibition” value is inactive: -15.1% [at 320 µM].

In the case of `CCO/C([O-])=N/c1c[n+](N2CCOCC2)no1`, the activity change, negative = inhibition result is “inactive”.

For the molecule `O=C(Nc1cccc(F)c1)N1CC[C@@]2(CCCNC2)C1`, the “activity change, negative = inhibition” value was inactive: 32.5%.

As to `CCc1c(C)[nH]c2c1C(=O)C(CN1CCOCC1)CC2` (centres undefined), the activity change, negative = inhibition result is “inactive”.

With `CC(=O)OCC1OC(Oc2cc(OC(C)=O)c3c(=O)cc(-c4ccc(OC(C)=O)c(OC(C)=O)c4)oc3c2)C(OC(C)=O)C(OC(C)=O)C1OC(C)=O` (centres undefined), the “activity change, negative = inhibition” value is inactive: -16.4%.

The record behind these values is PubChem BioAssay AID1645882 (National Center for Advancing Translational Sciences (NCATS), 2021).
